# Source: article PMC4336329 (PLoS ONE, 2015)
# About 2,200 (0.71%) of roughly 310,000 compounds showed an effect of 50% or more. The effect is printed as a negative number. The list shows a part of the results.
# Biological target: human ether-à-go-go-related gene (hERG) potassium channel (human, UniProt Q12809)
# Assay: primary screen, population patch clamp on CHO cells stably expressing hERG
# human ether-à-go-go-related gene (hERG) potassium channel, sequence (Q12809 whole entry, looked up): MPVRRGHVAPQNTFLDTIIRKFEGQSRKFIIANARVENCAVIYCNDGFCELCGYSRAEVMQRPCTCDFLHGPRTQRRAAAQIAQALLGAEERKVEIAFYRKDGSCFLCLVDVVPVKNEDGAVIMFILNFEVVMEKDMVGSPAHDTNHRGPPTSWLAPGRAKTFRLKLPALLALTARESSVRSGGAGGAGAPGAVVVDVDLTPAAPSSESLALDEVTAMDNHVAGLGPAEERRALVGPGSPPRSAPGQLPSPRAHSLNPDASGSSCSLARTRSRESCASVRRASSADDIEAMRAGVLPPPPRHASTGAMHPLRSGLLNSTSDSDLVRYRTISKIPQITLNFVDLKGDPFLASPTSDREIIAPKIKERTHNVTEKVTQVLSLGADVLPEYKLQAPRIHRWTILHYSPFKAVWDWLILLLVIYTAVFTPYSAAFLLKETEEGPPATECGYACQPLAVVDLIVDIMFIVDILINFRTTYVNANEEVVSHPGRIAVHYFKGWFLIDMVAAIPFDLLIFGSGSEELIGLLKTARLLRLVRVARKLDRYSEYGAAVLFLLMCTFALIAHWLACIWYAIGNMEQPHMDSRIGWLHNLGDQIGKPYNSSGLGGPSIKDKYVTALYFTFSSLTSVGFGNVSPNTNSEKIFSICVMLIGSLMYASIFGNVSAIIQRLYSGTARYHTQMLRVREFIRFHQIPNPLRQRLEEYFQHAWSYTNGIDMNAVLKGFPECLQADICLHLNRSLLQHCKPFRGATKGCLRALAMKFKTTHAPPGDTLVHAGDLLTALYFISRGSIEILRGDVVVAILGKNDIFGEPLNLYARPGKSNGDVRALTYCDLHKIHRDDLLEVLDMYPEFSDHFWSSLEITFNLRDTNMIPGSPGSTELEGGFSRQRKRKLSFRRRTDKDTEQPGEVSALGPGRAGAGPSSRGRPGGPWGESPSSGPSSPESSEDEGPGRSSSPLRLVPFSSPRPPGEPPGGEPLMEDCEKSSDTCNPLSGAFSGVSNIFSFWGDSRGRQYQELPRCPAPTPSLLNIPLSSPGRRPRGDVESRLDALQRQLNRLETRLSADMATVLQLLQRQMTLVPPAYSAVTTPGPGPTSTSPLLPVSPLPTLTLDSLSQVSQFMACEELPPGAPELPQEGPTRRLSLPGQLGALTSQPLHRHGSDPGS
row,SMILES,"hERG current change (%, negative = inhibition) at 1uM [%]"
1,COc1cc(C(=O)OCC(=O)NC(C)CCc2ccccc2)cc(OC)c1OC (stereo not shown),11.3
2,COC(=O)Cn1c(=NC(=O)C(C)C)sc2c(C)cc(C)cc21,12.8
3,CCOC(=O)c1nc(Nc2ccccc2C)c2ccccc2n1,5.74
4,CN1CCC(Oc2ccccc2Sc2ccccc2)CC1.O=C(O)C(=O)O,-14.2
5,COc1cccc(/C=C2\SC(N)=NC2=O)c1OS(=O)(=O)c1ccccc1,2.6
6,CCN1C(=O)C2(C(C#N)=C(N)Oc3n[nH]c(-c4ccccc4)c32)c2ccccc21 (stereo not shown),9.06
7,N#Cc1nc(-c2ccc(OCc3ccc(Cl)cc3)cc2)oc1N1CCOCC1,-0.904
8,COc1ccccc1CC(=O)NC1CCC(C)CC1 (stereo not shown),5.51
9,O=C(Nc1nc(-c2ccc(Cl)cc2)cs1)c1cccnc1,11.4
10,Cl.Oc1ccc(CN2CCCCC2)nc1-c1ccccc1,-7.62
11,CNc1nc(Cl)c(SC)c(NCc2cccc(OC)c2)n1,13.6
12,O=C(N/C(=C\c1ccc([N+](=O)[O-])cc1)C(=O)N1CCCCC1)c1ccc(Br)o1,-53.4
13,COc1ccccc1C(=O)Nc1ccnn1C1CCN(CCCC2CCCC2)CC1,-93.2
14,COCC(=O)OCc1cc2cccc(C)c2[nH]c1=O,5.1
15,Cn1c(/C=N/c2nc3ccccc3[nH]2)nc2ccccc21,8.07
16,COC(=O)c1sc(NC(=O)C(C)C)c(C(=O)OC)c1C,11.6
17,COc1ccc2c(c1)OC[C@H]1[C@@H]2N2C(=O)CNC(=O)[C@@]2(C)[C@H]1c1ccccc1,19.8
18,c1ccc(-c2nc3ccccc3o2)nc1,0.456
19,Br.COc1ccc(C(=O)Cn2c(NCCO)nc3ccccc32)cc1OC,1.77
20,O=C(O)CCCC(=O)Nc1ccc(Sc2ccc([N+](=O)[O-])cc2)cc1,7.12

row,SMILES,"hERG current change (%, negative = inhibition) at 1uM [%]"
1,CN(C)c1ccc(/C=N/NC(=O)c2cccc(C(=O)N/N=C/c3ccc(N(C)C)cc3)n2)cc1,4.04
2,CCOc1cc(N2CCOCC2)c(OCC)cc1NC(=O)c1cc(C)cc(C)c1,6.66
3,CCCCNCc1cc(Br)c(OCc2cccs2)c(OC)c1.Cl,-3.22
4,CCCC12CN3CC(C)(CN(C1)C3c1cccs1)C2=O (stereo not shown),3.56
5,NC(=O)C1CCN(c2ncc(C(F)(F)F)cc2Cl)CC1,10.6
6,Cc1ccc(NC(=O)c2cc(=O)c3ccccc3o2)cc1,8.94
7,Cc1cc(C(=O)Nc2nnc(C(F)(F)F)s2)cs1,5.94
8,CC(C)Oc1ccc(Cl)cc1Nc1nc(NCCO)nc(N2CCCC2)n1,7.27
9,Cc1ccc(-n2ncc3c(Nc4cccc(C(=O)O)c4)ncnc32)cc1,12.4
10,COC(=O)C1=NN(N=O)C2(CC(=O)N(c3cc(C)cc(C)c3)C2=O)C1 (stereo not shown),9.48
11,O=C1CC(=O)Nc2cc(S(=O)(=O)NCc3cccs3)ccc2N1,6.44
12,COc1cccc(OC)c1C(=O)OCC(=O)NCCCc1ccccc1,7.04
13,O=C(NCCCSc1ccccc1)c1cc(Cl)ccc1O,13
14,CC(=O)c1ccc(NC(=O)CSc2nnc(-c3ccoc3C)n2Cc2ccccc2)cc1,1.9
15,Cc1ccccc1C(=O)Nc1nncs1,15.9
16,CCc1nnc(NC(=O)Cc2cc(OC)c(OC)c(OC)c2)s1,2.08
17,COc1ccccc1Cn1nc(C(=O)O)c2ccccc2c1=O,18.7
18,COc1ccc(-c2nnc(-c3ccc(F)cc3)o2)cc1,13.1
19,CCCSc1nc(O)c(C2OC(=O)c3c2ccc(OC)c3OC)c(=O)n1-c1ccccc1 (stereo not shown),25.6
20,CCC(C)C(=O)Nc1nnc(CCc2ccccc2)s1 (stereo not shown),9.3

row,SMILES,"hERG current change (%, negative = inhibition) at 1uM [%]"
1,Cn1ncc(Cl)c1C(=O)N/N=C/c1cccc(OC2CSC2)c1,9.83
2,CC(C)(C)C(=O)NC(n1cnc2c(N3CCOCC3)ncnc21)C(Cl)(Cl)Cl (stereo not shown),6.82
3,COc1cc(C(=O)NCc2cccc3ccccc23)ccc1OCc1ccccc1,21.6
4,CNC[C@H](NC[C@@H](NCCCc1ccccc1)c1ccccc1)[C@H](C)O,12.1
5,O=C(NCc1ccccc1)C1=C[C@@H](C2CCCCC2)C[C@@H](OCc2ccc(CO)cc2)O1,17.1
6,CC(=O)Nc1cccc(C(=O)OCCCOc2ccc(F)cc2)c1,7.94
7,O=C(CN1CCc2cc3c(cc2C1)OCCCO3)Nc1ccc(F)cc1,12
8,CC(C)(C)N(Cc1cc2ccccc2[nH]c1=O)C(=O)c1cccnc1,0.664
9,COc1ccc(Cc2nc(-c3cccnc3)no2)cc1OC,16.8
10,COc1ccccc1NC(=O)c1cnc(SCC(=O)NCCc2ccccc2)n(C)c1=O,0.429
11,NNC(=O)CSCc1ccc(Cl)cc1Cl,-1.45
12,Cc1ccc(NC(=O)[C@@H]2CCCN2S(=O)(=O)c2ccccc2F)cc1S(=O)(=O)N1CCOCC1,15.7
13,COc1ccc(S(=O)(=O)N2CCN(CC(=O)c3ccc(O)c(O)c3)CC2)cc1,-16
14,O=C(COC(=O)C1CC1)NCc1ccccc1Cl,14
15,COC(=O)c1ccc(Cl)c(NC(=O)CN(c2ccc3c(c2)OCO3)S(C)(=O)=O)c1,0.215
16,CCOC(=O)c1c(NC(=O)CSc2ncn[nH]2)sc(C(=O)N(C)C)c1C,-0.52
17,O=C1NC(=Nc2ccccc2)/C(=C/c2ccco2)S1,15.1
18,COc1ccc(N2C(=O)CC(N3CCN(c4cccc(Cl)c4)CC3)C2=O)cc1 (stereo not shown),14.3
